Measured values from a collection of fitness landscapes (doi:10.1016/j.celrep.2020.107928).
The full ranking holds about 81,000 sequences; the median of “one-hybrid fitness for binding parS DNA” is about -0.17, and the highest 2% start at about 0.51. The list shows a part of the results.

B1: Caulobacter ParB omega fusion; a variant is named by its letters at X, in order, B8GW30 (parent)
chain: MESVVVGEPGMSEGRRGLGRGLSALLGEVDAAPAQAPGEQLGGSREAPIEILQRNPDQPRRTFREEDLEDLSNSIREKGVLQPILVRPSPDTAGEYQIVAGERAWRAAQRAGLKTVPIMVRELDDLAVLEIGIIENVQRADLNVLEEALSYKVLMEKFERTQENIAQTIGKSXSHVANXMRLLXLPDEVQSYLVSGELTAXHARAIAAAADPVALAKQIIEGGLSVRETEALARKAPNLSAGKSKGGRPPRVKDTDTQALESDLSSVLGLDVSIDHRGSTGTLTITYATLEQLDDLCNRLTRGI

Variants of: B1
Assay: one-hybrid fitness for binding parS DNA (scaled: cognate 1, non-cognate 0); higher = stronger binding
Details: with parS DNA site
Summary of the method: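 Values were rescaled so that cognate is 1 and non-cognate is 0. Each is a fitness, the log change in a variant's read ratio to wild type from Illumina reads of plasmids before and after selection, with three replicate libraries pooled and variants under 10 reads dropped. Selection of the Caulobacter ParB libraries, four specificity codons randomised, used E. coli USO with a HIS3 reporter, site 19 bp from the promoter, on M9-minus-histidine with 0.1 mM IPTG and 5 mM 3-AT for 48 hours at 37°C.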

| Variant | one-hybrid fitness for binding parS DNA |
| --- | --- |
| RCCW | 0.244 |
| HVHW | ≤ 0.2 |
| CFHT | ≤ 0.2 |
| IALY | ≤ 0.2 |
| NCTK | ≤ 0.2 |
| VPCV | ≤ 0.2 |
| PPLH | ≤ 0.2 |
| PNGL | ≤ 0.2 |
| CQMR | ≤ 0.2 |
| LWAC | ≤ 0.2 |
| LWFS | ≤ 0.2 |
| HSGL | ≤ 0.2 |
| PPKE | ≤ 0.2 |
| FHKS | ≤ 0.2 |
| KPSE | ≤ 0.2 |
| MLTP | ≤ 0.2 |
| RTPV | ≤ 0.2 |
| DMVS | ≤ 0.2 |
| AEPA | ≤ 0.2 |
| NNEF | ≤ 0.2 |
| QIGY | ≤ 0.2 |
| FIKR | ≤ 0.2 |
| TVNA | ≤ 0.2 |
| PPGR | ≤ 0.2 |
| HSSF | ≤ 0.2 |
| PKSA | ≤ 0.2 |

| Variant | one-hybrid fitness for binding parS DNA |
| --- | --- |
| MLVS | ≤ 0.2 |
| RNQE | ≤ 0.2 |
| GTMI | ≤ 0.2 |
| EGYL | ≤ 0.2 |
| EMHF | ≤ 0.2 |
| QSCE | ≤ 0.2 |
| FVLG | ≤ 0.2 |
| VICT | ≤ 0.2 |
| CHIR | ≤ 0.2 |
| QDKS | ≤ 0.2 |
| QKEH | ≤ 0.2 |
| IRTR | ≤ 0.2 |
| RWDA | 0.29 |
| ENDR | ≤ 0.2 |
| RKID | ≤ 0.2 |
| VMFL | ≤ 0.2 |
| QNSR | ≤ 0.2 |
| NLRA | ≤ 0.2 |
| SAHN | ≤ 0.2 |
| TWKR | ≤ 0.2 |
| DRIT | ≤ 0.2 |
| CIRS | ≤ 0.2 |
| STLM | ≤ 0.2 |
| RSKF | 0.35 |
| GCWW | 0.205 |
| AATW | ≤ 0.2 |

| Variant | one-hybrid fitness for binding parS DNA |
| --- | --- |
| SRER | ≤ 0.2 |
| KYGV | ≤ 0.2 |
| TDPT | ≤ 0.2 |
| SALD | ≤ 0.2 |
| IVAK | ≤ 0.2 |
| RQGT | 0.847 |
| VKYP | ≤ 0.2 |
| HLTG | ≤ 0.2 |
| CPMT | ≤ 0.2 |
| NKTE | ≤ 0.2 |
| THLH | ≤ 0.2 |
| TEAS | ≤ 0.2 |
| NTSP | ≤ 0.2 |
| CPVL | ≤ 0.2 |
| YAKM | ≤ 0.2 |
| SCNE | ≤ 0.2 |
| TFDG | ≤ 0.2 |
| AWRS | ≤ 0.2 |
| FLAT | ≤ 0.2 |
| RSRT | 0.832 |
| CFDR | ≤ 0.2 |
| DTYS | ≤ 0.2 |
| VRNM | ≤ 0.2 |
| SLDR | ≤ 0.2 |
| TFMM | ≤ 0.2 |
| RQEN | 0.379 |

| Variant | one-hybrid fitness for binding parS DNA |
| --- | --- |
| VQHY | ≤ 0.2 |
| CHHS | ≤ 0.2 |
| DLVG | ≤ 0.2 |
| CGSA | ≤ 0.2 |
| VPSL | ≤ 0.2 |
| YLIC | ≤ 0.2 |
| SFNI | ≤ 0.2 |
| HVRG | ≤ 0.2 |
| LKHK | ≤ 0.2 |
| WSYA | ≤ 0.2 |
| QTWI | ≤ 0.2 |
| PRWR | ≤ 0.2 |
| VLIC | ≤ 0.2 |
| RVRR | ≤ 0.2 |
| RQCE | ≤ 0.2 |
| FHCT | ≤ 0.2 |
| EDQG | ≤ 0.2 |
| SSAW | ≤ 0.2 |
| HGKF | ≤ 0.2 |
| KSVT | ≤ 0.2 |
| AFEG | ≤ 0.2 |
| WYCV | ≤ 0.2 |
| QVMD | ≤ 0.2 |
| NWPE | ≤ 0.2 |
| HTTR | ≤ 0.2 |
| MAVT | ≤ 0.2 |

| Variant | one-hybrid fitness for binding parS DNA |
| --- | --- |
| KWHL | ≤ 0.2 |
| RGQT | 0.58 |
| EATA | ≤ 0.2 |
| PSAA | ≤ 0.2 |
| ACLT | ≤ 0.2 |
| NATW | ≤ 0.2 |
| MLDV | ≤ 0.2 |
| MAKN | ≤ 0.2 |
| SITY | ≤ 0.2 |
| IHGP | ≤ 0.2 |
| EGKQ | ≤ 0.2 |
| PKLY | ≤ 0.2 |
| RIKC | 0.805 |
| YFHS | ≤ 0.2 |
| ATFG | ≤ 0.2 |
| IHRS | ≤ 0.2 |
| MWKC | ≤ 0.2 |
| EVEG | ≤ 0.2 |
| APQM | ≤ 0.2 |
| TKDN | ≤ 0.2 |
| SAFH | ≤ 0.2 |
| DLKR | ≤ 0.2 |
| RIMM | 0.377 |
| MVNS | ≤ 0.2 |
| RLPT | 0.58 |
| DGYT | ≤ 0.2 |

| Variant | one-hybrid fitness for binding parS DNA |
| --- | --- |
| PLQI | ≤ 0.2 |
| SNPF | ≤ 0.2 |
| IRCS | ≤ 0.2 |
| PVNG | ≤ 0.2 |
| QHDY | ≤ 0.2 |
| SIGV | ≤ 0.2 |
| TATE | ≤ 0.2 |
| KPTT | ≤ 0.2 |
| KCSR | ≤ 0.2 |
| QGEG | ≤ 0.2 |
| VIHG | ≤ 0.2 |
| ARAK | ≤ 0.2 |
| TSQP | ≤ 0.2 |
| ETSC | ≤ 0.2 |
| AESF | ≤ 0.2 |
| GPLW | ≤ 0.2 |
| TIKW | ≤ 0.2 |
| TRVA | ≤ 0.2 |
| KLNL | ≤ 0.2 |
| LIWC | ≤ 0.2 |
| KIKC | ≤ 0.2 |
| CHER | ≤ 0.2 |
| CKAE | ≤ 0.2 |
